# Test results: the supplement of paper PMC12217912
# Some of the results follow. The full chains were built here from the parent and the listed change. Values near 0.05 are background.
# B1: TEV protease; numbered along this chain (parent)
# chain: MGESLFKGPRDYNPISSSICHLTNESDGHTTSLYGIGFGPFIITNKHLFRRNNGTLVVQSLHGVFKVKDTTTLQQHLVDGRDMIIIRMPKDFPPFPQKLKFREPQREERICLVTTNFQTKSMSSMVSDTSCTFPSGDGIFWKHWIQTKDGQCGSPLVSTRDGFIVGIHSASNFTNTNNYFTSVPKNFMELLTNQEAQQWVSGWRLNADSVLWGGHKVFMVKPEEPFQPVKEATQL
# Variants of: B1
# Assay: raw area under fraction-flipped curve 0-4 h after induction (AUC4h, not background-subtracted), DNA-recorder readout of cleavage of the substrate (dimensionless); higher = more cleavage of the substrate by the protease variant
# Settings: temperature: 34 °C; time window: 0-4 h after rhamnose induction
# Experimental: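 In vivo DNA recorder in E. coli TOP10(DE3) ΔrhaA at 34 °C. Each TEVp single-site mutant (parent TEVp 0) is paired with a single-site variant of the 7-mer TEVs (canonical ENLYFQ|S). The substrate sits between flexible linkers in a Bxb1-sfGFP-TEVs-SsrA fusion, so cleavage stabilises Bxb1 and speeds flipping of a recombination array, read by NGS. The value is the raw area under the fraction-flipped curve over 0-4 h after rhamnose induction (AUC4h), with ≥20 reads per time point. It is not background-subtracted; inactive controls average about 0.047.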
# 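Also: Bxb1 expression induced with 0.2% (w/v) L-rhamnose at OD600 near 0.5, cultures sampled hourly, flipped fraction per protease–substrate barcode pair counted by paired-end Illumina sequencing.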
Variant,area with substrate ENLYFCS,area with substrate ENLYFES,area with substrate ENLYFHS,area with substrate ENLYFKS,area with substrate ENLYFMS,area with substrate ENLYFTS,area with substrate ENLYFWS,area with substrate ENLYFDS,area with substrate ENLYFFS,area with substrate ENLYFIS,area with substrate ENLYFNS,area with substrate ENLYFVS,area with substrate ENLYFYS,area with substrate ENLYFGS,area with substrate ENLYFLS,area with substrate ENLYFSS,area with substrate ENLYFPS,area with substrate ENLYFRS
K230R,0.0652,0.0798,0.0684,0.075,0.0638,0.0535,0.047,,,,,,,,,,,
R109D,0.0655,0.0648,,,0.0514,,,0.0678,0.0628,0.0676,0.0579,0.0567,0.0577,,,,,
L190K,0.0594,0.0831,,0.0581,0.0633,0.0576,,0.0435,0.0755,0.0544,0.0565,,0.0536,0.0476,0.0477,0.054,,
R51D,0.0495,0.0707,,,,,0.0556,0.0401,0.0761,0.0635,,0.0501,,,0.0496,,0.0586,
R87L,0.061,0.0599,,0.0457,0.0766,0.0575,0.0528,0.0549,0.0669,0.0582,0.062,,,,,0.0589,0.046,
R87M,0.038,0.0661,,,0.0664,0.0651,,,0.0736,,,,,,,,,
R87E,0.061,,,,0.0635,0.0576,,,,0.0569,0.0752,,0.0532,0.0633,0.0649,,,0.0917
G138E,0.0405,,,,,,,,,,0.0655,,,,,,0.0529,
P14F,0.0539,0.0709,0.0473,0.0553,0.0749,0.0594,,0.0686,0.0671,0.0522,0.0601,0.062,0.0485,,0.0616,0.0549,0.0673,
P94C,0.042,,,0.0596,0.0905,0.0749,,,0.0646,0.0508,,0.0492,,,,,,
Q74T,0.0557,0.0811,,,,0.0695,,,0.0623,0.0496,0.051,0.0497,0.058,,,0.0451,,
K98H,0.0784,,0.0627,0.0712,0.0743,0.0569,,0.0526,0.0695,0.0518,,,0.063,0.0648,0.053,,0.054,0.0662
N206Q,0.0634,0.0813,,,0.0571,,,0.0782,0.0546,0.0524,,0.0506,,,0.0558,0.0791,0.0523,
N206M,0.0558,,,,0.0664,0.0554,0.0591,,,0.056,,,0.0522,,0.0517,,,
N206W,0.0532,0.0589,0.044,,0.0603,0.0557,,0.0321,0.0598,0.054,0.0619,0.0626,0.0576,,,0.065,0.0631,0.0639
T181Q,0.0675,0.0766,0.0623,,0.063,0.056,0.0574,,,0.0523,0.0695,,,0.0575,,,0.0407,

Variant,area with substrate ENLYFCS,area with substrate ENLYFES,area with substrate ENLYFHS,area with substrate ENLYFKS,area with substrate ENLYFMS,area with substrate ENLYFTS,area with substrate ENLYFWS,area with substrate ENLYFDS,area with substrate ENLYFFS,area with substrate ENLYFIS,area with substrate ENLYFNS,area with substrate ENLYFVS,area with substrate ENLYFYS,area with substrate ENLYFGS,area with substrate ENLYFLS,area with substrate ENLYFSS,area with substrate ENLYFPS,area with substrate ENLYFRS
T115I,0.0552,,,0.0557,,0.048,0.0564,,,0.0584,0.0833,0.0549,,0.0862,,,0.0638,
T115H,0.0579,0.0718,0.0174,,,0.0395,0.0528,0.0692,0.0604,0.0592,0.0848,,,0.0682,0.0467,0.0646,0.0776,0.0575
H215Y,0.065,,,,0.0745,,0.0385,0.0583,0.0735,0.0467,,,0.0409,,,,0.0518,0.0605
V57F,0.0646,,0.0586,0.0555,0.0719,0.0809,0.0517,,0.0652,0.0546,0.0596,,0.0559,0.0399,0.0128,0.052,0.0523,0.0634
Y12T,0.0463,0.0639,,0.0544,0.0763,0.0529,0.0507,0.0539,,0.0578,0.107,0.0587,,,0.0688,0.0593,0.0599,
F41M,0.0628,0.0651,0.0516,0.0508,0.0525,0.0597,0.0458,0.0563,0.0723,0.0517,0.0627,0.0729,0.0596,,0.0522,0.0553,0.066,0.0645
I84Y,0.0628,0.0672,0.0673,,,0.0479,0.0313,,0.0688,0.0562,,0.0397,,,0.0481,0.0557,0.0537,0.0709
I84L,0.0532,0.0611,,,0.0425,0.0487,,0.0394,0.039,0.0589,0.0527,0.04,0.0646,,,,0.0703,0.0495
G35H,0.0302,0.038,,0.0534,0.0174,0.0494,,,0.0518,,0.0508,,,,0.0294,0.0546,0.0461,0.0341
I86P,0.0355,0.0401,0.0332,0.0434,0.0191,,,,0.0457,0.0492,,,,,,,,
P89K,0.033,0.0758,,,0.0577,,,,,0.0557,0.0604,0.0554,,,,0.0532,0.0791,
P89R,0.0578,0.0435,0.0608,0.0464,0.0639,0.0559,0.0776,,0.0641,0.0524,0.0508,0.0459,,0.0575,,0.0735,0.0552,0.0595
P89T,0.0475,,,,0.0411,0.0509,,,0.072,0.0139,,,0.058,,0.0659,0.0474,0.0622,0.0549
T55R,0.0603,,0.0838,0.0543,0.0738,0.0771,,,,0.035,0.07,,,,,0.0561,0.064,
Q75Y,0.0416,0.0538,0.0631,0.0617,0.0671,0.0603,0.0088,0.0581,0.0726,0.054,0.0609,0.0857,,,,0.0504,0.0613,
Q75S,0.0511,,0.0477,0.0447,,,0.0556,,,0.0721,,0.0482,,0.0649,,0.068,0.0587,
